# The other results are listed elsewhere or left out.
# B1: AICL (Homo sapiens), Q92478 (protein)
# chain: MMTKHKKCFIIVGVLITTNIITLIVKLTRDSQSLCPYDWIGFQNKCYYFSKEEGDWNSSKYNCSTQHADLTIIDNIEEMNFLRRYKCSSDHWIGLKMAKNRTGQWVDGATFTKSFGMRGSEGCAYLSDDGAATARCYTERKWICRKRIH
# Legend:
# Test in all cases: glycan array binding signal (z-score within array); higher = stronger binding
# Conditions in all cases: glycan notation: IUPAC condensed, linker removed
# [1] = biological target: Neu5Ac(a2-3)Gal(b1-4)GlcNAc(b1-3)Gal(b1-4)GlcNAc
# Method in brief: (§1)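 Negative Z-scores can be read as non-binding. The Z-score is calculated within each array and then averaged across arrays of one protein sequence at different concentrations or buffers and across linkers. Arrays, 3228 in all, were curated from the Consortium for Functional Glycomics database and kept only where the protein sequence was available.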
# [2] = biological target: Neu5Ac(a2-3)Gal(b1-4)GlcNAc(b1-3)Gal(b1-4)GlcNAc(b1-3)Gal(b1-4)GlcNAc
# Method in brief: as §1
# [3] = biological target: Neu5Ac(a2-3)Gal(b1-4)GlcNAc(b1-3)Gal(b1-4)[Fuc(a1-3)]GlcNAc
# Method in brief: as §1
# [4] = biological target: Neu5Ac(a2-3)Gal(b1-4)GlcNAc6S
# Method in brief: as §1
# [5] = biological target: Neu5Ac(a2-3)Gal(b1-4)[Fuc(a1-3)]GlcNAc
# Method in brief: as §1
# [6] = biological target: Neu5Ac(a2-3)Gal(b1-4)[Fuc(a1-3)]GlcNAc(b1-3)Gal
# Method in brief: as §1
# [7] = biological target: Neu5Ac(a2-3)Gal(b1-4)[Fuc(a1-3)]GlcNAc(b1-3)Gal(b1-4)GlcNAc
# Method in brief: as §1
# [8] = biological target: Neu5Ac(a2-3)Gal(b1-4)[Fuc(a1-3)]GlcNAc(b1-3)Gal(b1-4)[Fuc(a1-3)]GlcNAc(b1-3)Gal(b1-4)[Fuc(a1-3)]GlcNAc
# Method in brief: as §1
# [9] = biological target: Neu5Ac(a2-3)Gal(b1-4)[Fuc(a1-3)]GlcNAc6S
# Method in brief: as §1
# [10] = biological target: Neu5Ac(a2-3)Gal6S(b1-4)GlcNAc
# Method in brief: as §1
# [11] = biological target: Neu5Ac(a2-3)Gal6S(b1-4)[Fuc(a1-3)]GlcNAc
# Method in brief: as §1
# [12] = biological target: Neu5Ac(a2-3)GalNAc
# Method in brief: as §1
# [13] = biological target: Neu5Ac(a2-3)GalNAc(b1-4)GlcNAc
# Method in brief: as §1
# [14] = biological target: Neu5Ac(a2-3)[GalNAc(b1-4)]Gal(b1-4)Glc
# Method in brief: as §1
# [15] = biological target: Neu5Ac(a2-3)[GalNAc(b1-4)]Gal(b1-4)GlcNAc
# Method in brief: as §1
# [16] = biological target: Neu5Ac(a2-3)[Neu5Ac(a2-6)]GalNAc
# Method in brief: as §1
# [17] = biological target: Neu5Ac(a2-6)Gal
# Method in brief: as §1
# [18] = biological target: Neu5Ac(a2-6)Gal(b1-4)Glc
# Method in brief: as §1
# [19] = biological target: Neu5Ac(a2-6)Gal(b1-4)GlcNAc
# Method in brief: as §1
# [20] = biological target: Neu5Ac(a2-6)Gal(b1-4)GlcNAc(b1-2)Man(a1-3)[Neu5Ac(a2-6)Gal(b1-4)GlcNAc(b1-2)Man(a1-6)]Man(b1-4)GlcNAc(b1-4)GlcNAc
# Method in brief: as §1
# [21] = biological target: Neu5Ac(a2-6)Gal(b1-4)GlcNAc(b1-3)Gal(b1-4)GlcNAc
# Method in brief: as §1
# [22] = biological target: Neu5Ac(a2-6)Gal(b1-4)GlcNAc(b1-3)Gal(b1-4)[Fuc(a1-3)]GlcNAc(b1-3)Gal(b1-4)[Fuc(a1-3)]GlcNAc
# Method in brief: as §1
# [23] = biological target: Neu5Ac(a2-6)Gal(b1-4)GlcNAc6S
# Method in brief: as §1
# [24] = biological target: Neu5Ac(a2-6)GalNAc
# Method in brief: as §1
# [25] = biological target: Neu5Ac(a2-6)GalNAc(b1-4)GlcNAc
# Method in brief: as §1
# [26] = biological target: Neu5Ac(a2-8)Neu5Ac
# Method in brief: as §1
# [27] = biological target: Neu5Ac(a2-8)Neu5Ac(a2-3)Gal(b1-4)Glc
# Method in brief: as §1
# [28] = biological target: Neu5Ac(a2-8)Neu5Ac(a2-3)[GalNAc(b1-4)]Gal(b1-4)Glc
# Method in brief: as §1
# [29] = biological target: Neu5Ac(a2-8)Neu5Ac(a2-8)Neu5Ac
# Method in brief: as §1
# [30] = biological target: Neu5Ac(a2-8)Neu5Ac(a2-8)Neu5Ac(a2-3)Gal(b1-4)Glc
# Method in brief: as §1
# [31] = biological target: Neu5Ac(a2-8)Neu5Ac(a2-8)Neu5Ac(a2-3)[GalNAc(b1-4)]Gal(b1-4)Glc
# Method in brief: as §1
# [32] = biological target: Neu5Ac(a2-8)Neu5Ac(a2-8)Neu5Ac(a2-8)Neu5Ac(a2-3)[GalNAc(b1-4)]Gal(b1-4)Glc
# Method in brief: as §1
# [33] = biological target: Neu5Ac(b1-6)GalNAc
# Method in brief: as §1
# [34] = biological target: Neu5Ac(b2-6)Gal(b1-4)GlcNAc
# Method in brief: as §1
# [35] = biological target: Neu5Ac9Ac(a2-6)Gal(b1-4)GlcNAc
# Method in brief: as §1
# [36] = biological target: Neu5Gc(a2-3)Gal(b1-3)GlcNAc
# Method in brief: as §1
# [37] = biological target: Neu5Gc(a2-3)Gal(b1-3)[Fuc(a1-4)]GlcNAc
# Method in brief: as §1
# [38] = biological target: Neu5Gc(a2-3)Gal(b1-4)Glc
# Method in brief: as §1
# [39] = biological target: Neu5Gc(a2-3)Gal(b1-4)GlcNAc
# Method in brief: as §1
# [40] = biological target: Neu5Gc(a2-3)Gal(b1-4)[Fuc(a1-3)]GlcNAc
# Method in brief: as §1
# [41] = biological target: Neu5Gc(a2-6)Gal(b1-4)GlcNAc
# Method in brief: as §1
# [42] = biological target: Neu5Gc(a2-6)GalNAc
# Method in brief: as §1
binder,measurement,setting,value
B1,glycan array binding signal (z-score),[1],-0.411
same,glycan array binding signal (z-score),[2],-0.415
same,glycan array binding signal (z-score),[3],0.846
same,glycan array binding signal (z-score),[4],-0.183
same,glycan array binding signal (z-score),[5],-0.409
same,glycan array binding signal (z-score),[6],-0.498
same,glycan array binding signal (z-score),[7],0.187
same,glycan array binding signal (z-score),[8],-0.357
same,glycan array binding signal (z-score),[9],0.232
same,glycan array binding signal (z-score),[10],-0.142
same,glycan array binding signal (z-score),[11],-0.333
same,glycan array binding signal (z-score),[12],-0.349
same,glycan array binding signal (z-score),[13],-0.335
same,glycan array binding signal (z-score),[14],-0.261
same,glycan array binding signal (z-score),[15],-0.3
same,glycan array binding signal (z-score),[16],0.036
same,glycan array binding signal (z-score),[17],-0.391
same,glycan array binding signal (z-score),[18],-0.359
same,glycan array binding signal (z-score),[19],-0.428
same,glycan array binding signal (z-score),[20],-0.371
same,glycan array binding signal (z-score),[21],-0.504
same,glycan array binding signal (z-score),[22],0.004
same,glycan array binding signal (z-score),[23],-0.194
same,glycan array binding signal (z-score),[24],-0.363
same,glycan array binding signal (z-score),[25],-0.293
same,glycan array binding signal (z-score),[26],0.384
same,glycan array binding signal (z-score),[27],-0.223
same,glycan array binding signal (z-score),[28],0.023
same,glycan array binding signal (z-score),[29],0.668
same,glycan array binding signal (z-score),[30],0.329
same,glycan array binding signal (z-score),[31],0.11
same,glycan array binding signal (z-score),[32],0.188
same,glycan array binding signal (z-score),[33],-0.464
same,glycan array binding signal (z-score),[34],-0.099
same,glycan array binding signal (z-score),[35],-0.182
same,glycan array binding signal (z-score),[36],0.332
same,glycan array binding signal (z-score),[37],-0.323
same,glycan array binding signal (z-score),[38],-0.04
same,glycan array binding signal (z-score),[39],0.329
same,glycan array binding signal (z-score),[40],0.025
same,glycan array binding signal (z-score),[41],-0.267
same,glycan array binding signal (z-score),[42],-0.482
